In PubChem BioAssay AID504339 (National Center for Advancing Translational Sciences (NCATS), 2011):
About 17,000 (4.4%) of roughly 390,000 compounds were called active. The shares of active, inactive and inconclusive entries below differ from those in the screen. Calls follow the shape of the dose curve; as a rule, active = well fitted inhibition curve with a large enough effect; inconclusive = small, poorly fitted or top-dose-only effect; inactive = no such curve, though single readings can be large or run the other way. Potencies of inconclusive entries are doubtful fits and often do not repeat.

Target: Lysine-specific demethylase 4A (Homo sapiens) (UniProt O75164)
Test: qHTS Assay for Inhibitors of JMJD2A-Tudor Domain; also: nearly all actives have a fitted effect of over 50% in size
Details: AlphaScreen JMJD2A-Tudor / H3K4me3 peptide binding; series mostly up to 114 µM
Potency is read from the fitted curve at half-maximal effect; tags tell the direction and shape of the fitted curve.

UniProt O75164, sequence (O75164 whole entry, looked up, the tested form may be a part): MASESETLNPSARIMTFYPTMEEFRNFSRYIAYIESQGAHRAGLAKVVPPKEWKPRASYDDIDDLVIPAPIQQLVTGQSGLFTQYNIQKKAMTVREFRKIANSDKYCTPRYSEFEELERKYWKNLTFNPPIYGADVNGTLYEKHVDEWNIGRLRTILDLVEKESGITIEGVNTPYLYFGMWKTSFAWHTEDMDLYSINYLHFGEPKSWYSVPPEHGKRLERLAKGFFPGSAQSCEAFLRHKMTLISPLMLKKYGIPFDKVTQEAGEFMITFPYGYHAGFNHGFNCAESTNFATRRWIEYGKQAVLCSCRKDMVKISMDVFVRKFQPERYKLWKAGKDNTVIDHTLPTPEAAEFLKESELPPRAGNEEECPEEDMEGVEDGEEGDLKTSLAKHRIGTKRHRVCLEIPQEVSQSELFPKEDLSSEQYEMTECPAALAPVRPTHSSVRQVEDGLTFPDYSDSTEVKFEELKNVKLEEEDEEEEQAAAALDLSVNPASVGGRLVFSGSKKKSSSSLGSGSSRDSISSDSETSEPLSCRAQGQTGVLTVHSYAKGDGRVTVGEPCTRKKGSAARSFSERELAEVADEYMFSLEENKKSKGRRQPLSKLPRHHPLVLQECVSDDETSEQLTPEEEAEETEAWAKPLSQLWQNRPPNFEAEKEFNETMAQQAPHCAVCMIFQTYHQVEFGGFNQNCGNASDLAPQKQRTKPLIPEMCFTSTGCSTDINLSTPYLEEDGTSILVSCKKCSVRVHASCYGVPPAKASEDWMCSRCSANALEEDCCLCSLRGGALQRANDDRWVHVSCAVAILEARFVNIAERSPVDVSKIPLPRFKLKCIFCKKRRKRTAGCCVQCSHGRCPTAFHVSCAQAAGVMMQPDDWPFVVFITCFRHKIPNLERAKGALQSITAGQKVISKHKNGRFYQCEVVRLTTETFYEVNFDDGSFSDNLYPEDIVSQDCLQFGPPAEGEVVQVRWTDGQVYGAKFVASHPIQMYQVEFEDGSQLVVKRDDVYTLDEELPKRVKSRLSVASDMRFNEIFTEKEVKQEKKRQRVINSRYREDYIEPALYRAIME

Potency, inconclusive:
Cc1ccc(C=C2C(=O)c3ccccc3C2=O)s1 20 µM [inhibitor, full curve]
Cc1ccc2c(c1)c(-c1csc(N)n1)c(C)n2C 50.1 µM [inhibitor, partial curve]
CN(C)CCN(C(=O)c1ccc2c(c1)OCCO2)c1nc2ccc(Cl)cc2s1 79.4 µM [inhibitor, partial curve]
Cn1cc([N+](=O)[O-])c(C(=O)NNC(=O)c2ccc([N+](=O)[O-])cc2)n1 39.8 µM [inhibitor, single point]
O=C1NC(=Nc2ccccc2)S/C1=C/c1cccs1 50.1 µM [inhibitor, partial curve]
NC(=O)c1nn(CC(=O)Nc2cccc(S(=O)(=O)N3CCCCCC3)c2)c(=O)c2ccccc12 8.91 µM [inhibitor, partial curve]
O=C(COC(=O)Cc1ccc(S(=O)(=O)N2CCOCC2)s1)Nc1ccc(OC(F)F)cc1 50.1 µM [inhibitor, partial curve]
O=C(N/N=C/c1ccco1)c1cc(-c2cccc3ccccc23)n[nH]1 89.1 µM [inhibitor, partial curve]
CCOc1ccc(N(CC(=O)NC2CCCCC2)S(=O)(=O)c2ccc(C)cc2)cc1 0.708 µM [inhibitor, full curve, poor fit]
CC(C)(C)C1CCC2(CC1)C(C#N)=C(SCC(=O)Nc1ccccc1)NC(=O)C2C#N (stereo unspecified) 56.2 µM [inhibitor, partial curve]
CCn1c(C)cc(/C=C2/NC(=O)N(Cc3ccccc3F)C2=O)c1C 28.2 µM [inhibitor, partial curve]
Cc1cccn2c(=O)c(/C=C(\C#N)C(=O)NCc3ccco3)c(N3CCCCCC3)nc12 31.6 µM [inhibitor, full curve]
O=C(CSc1nnc(-c2ccccc2)c(-c2ccccc2)n1)NC1CCS(=O)(=O)C1 (stereo unspecified) 79.4 µM [inhibitor, partial curve]
O=c1c2ccccc2c(C=NCCc2ccccc2)c(O)n1Cc1ccccc1 56.2 µM [inhibitor, partial curve]
Cc1[nH]c2ccccc2c1CCN(Cc1cccnc1)C(=S)NC(C)(C)C 56.2 µM [inhibitor, partial curve, poor fit]
O=C(CN1C(=O)C2C3C=CC(C3)C2C1=O)NCCC1=CCCCC1 (stereo unspecified) 79.4 µM [inhibitor, single point]
CCOc1ccc(OCCC(=O)N2CCN(S(=O)(=O)c3ccc(F)cc3)CC2)cc1 89.1 µM [inhibitor, single point]
CN1CCc2nc3sc(C(=O)Nc4ccccc4C(F)(F)F)c(N)c3cc2C1 89.1 µM [inhibitor, partial curve]
O=C1/C(=C/c2ccc(N3CCOCC3)o2)SC(=Nc2ccccc2)N1CCc1c[nH]c2ccccc12 12.6 µM [inhibitor, partial curve]
CC(=O)c1ccc(NC(=O)CCc2c(C)nn(-c3ccc(N4CCCCC4)nn3)c2C)cc1 15.8 µM [inhibitor, full curve, poor fit]
O=[N+]([O-])c1ccc(N/N=C/c2cccc(O)c2O)cc1 15.8 µM [inhibitor, full curve, poor fit]
Oc1ccc(/C=N/Nc2nc(-c3ccccc3F)nc3ccccc23)c(O)c1 10 µM [inhibitor, full curve]
Cc1ccc(C2/C(=C(/O)c3cnn(-c4ccccc4)c3C)C(=O)C(=O)N2CCN2CCOCC2)o1 (stereo unspecified) 89.1 µM [inhibitor, single point]
CC1CCCN(c2nc3c(c(=O)n(C)c(=O)n3C)n2CCSc2nc3ccccc3s2)C1 (stereo unspecified) 56.2 µM [inhibitor, partial curve]
Cc1oc2cc([N+](=O)[O-])c(O)c([N+](=O)[O-])c2c1C(=O)c1ccc(Br)cc1 50.1 µM [inhibitor, partial curve]
Cc1cccc(-n2ccnc2SCC(=O)Nc2ccc3c(c2)OCO3)c1 44.7 µM [inhibitor, partial curve]
O=C(NCc1ccc(F)cc1)c1ccc(N2CCOCC2)c([N+](=O)[O-])c1 56.2 µM [inhibitor, partial curve, poor fit]
COC(=O)c1ccc(OCC2c3cc(OC)c(OC)cc3CCN2C(=O)c2ccco2)cc1 (stereo unspecified) 50.1 µM [inhibitor, partial curve]
CCN(CC)C(=O)[C@H]1C[C@H](CC(=O)NCCc2ccccn2)C(=O)N2CCc3c([nH]c4cc(-c5ccco5)ccc34)[C@]12C 50.1 µM [inhibitor, partial curve]
Cc1cccc(C)c1Nc1c(-c2ccc(N3CCOCC3)cc2)nc2cnccn12 89.1 µM [inhibitor, partial curve]
COc1ccccc1OCc1nc(C#N)c(N2CC(C)CC(C)C2)o1 (stereo unspecified) 70.8 µM [inhibitor, partial curve, poor fit]
Nc1nonc1-n1nnc(C(=O)N/N=C/c2ccccc2F)c1CN1CCc2ccccc21 8.91 µM [inhibitor, full curve, poor fit]
CCc1cc2cc(C)cc(C)c2nc1SCC(=O)N1CCN(C(=O)c2ccco2)CC1 56.2 µM [inhibitor, partial curve]
O=C(COC(=O)C1CC1)Nc1ncc(Cl)cc1Cl 20 µM [inhibitor, full curve]

Potency, inactive:
CC1(C)C(=O)OC(/C=C\c2cccc([N+](=O)[O-])c2)C(C)(C)C1=O (stereo unspecified)
O=C1CC[C@@H]2CC3(C[C@@H]4CCN1[C@H]24)Nc1cc([N+](=O)[O-])ccc1NC3=NC1CCCCC1 (stereo partly specified)
CNC(=O)c1ccsc1NC(=O)C1CCCN1S(=O)(=O)c1cccs1 (stereo unspecified)
Cc1ccc(NC(=O)CSc2ncc3ccccn23)cc1C
COc1ccc(-c2c(C)c3ccc(O)cc3oc2=O)cc1OC
CSc1ccccc1C(=O)Nc1c(C)cccc1C
COc1ccc(CN2C(=O)N(c3ccccc3)C(=O)C2c2ccccc2)cc1COc1ccc(NC(C)=O)cc1 (stereo unspecified)
CCCC1=Nc2cc(C(=O)N3CCC(C)CC3)ccc2Sc2ccc(C)cc21
Cc1ccc(C)c(NC(=O)CN(C)C(=O)Cc2coc3cc(C)c(C)cc23)c1
Cc1ccc(O)c(C(CC(=O)NCc2ccco2)c2ccccc2)c1 (stereo unspecified)
Cc1nc2scc(C)n2c(=O)c1S(=O)(=O)Nc1cccc(C(F)(F)F)c1
CCc1ccc(-c2cc(C)no2)cc1S(=O)(=O)N1CCN(c2ccccc2F)CC1
Cc1ccc(NS(=O)(=O)c2ccc(Cl)cc2)cc1C
COC(=O)C(Cc1c[nH]c2ccccc12)NC(=O)c1ccccc1Br (stereo unspecified)
CCCCSCCCNC(=O)C1CCC(CNS(=O)(=O)c2c(C)cc(C)cc2C)CC1 (stereo unspecified)
O=C(NCCS(=O)(=O)N1CCN(c2ccccc2F)CC1)c1ccc(F)c(F)c1
Cc1ccc(CNC(=O)C2CCN(S(=O)(=O)c3c(C)noc3/C=C/c3ccco3)CC2)cc1
CCOC(=O)C1(CCOc2ccccc2)CCN(Cc2ccncc2)CC1
Cc1ccc(NC(=O)CN2CCN(C)CC2)cc1S(=O)(=O)N1CCOCC1
Cc1cc(OC(=O)c2ccccc2Cl)cc(=O)n1C
O=C(CSc1nc2c([nH]c3ccccc32)c(=O)n1-c1ccccc1)N1CCCCCC1
N=C1c2c(cc(=O)n3c2[nH]c2ccccc23)CN1CCN1CCOCC1

Potency, active:
CC1Cc2cc(S(=O)(=O)NCc3ccc(N(C)C)cc3)ccc2N1C(=O)C1CCC1 (stereo unspecified) 44.7 µM
C=CCNCCOCCOc1ccccc1-c1ccccc1 50.1 µM
COc1ccc(CCn2c(-n3nc(C)cc3C)nc3c2c(=O)[nH]c(=O)n3C)cc1 3.16 µM
O=C(NC(=S)Nc1ncc(Br)cc1Br)c1cncc(Br)c1 50.1 µM
COc1cc(OC)cc(C(=O)N2CCC(N3CCN(c4ccccc4OC)CC3)CC2)c1 1.12 µM
O=[N+]([O-])c1ccc(Cl)c(/C=N/n2c(-c3ccncc3)n[nH]c2=S)c1 3.16 µM
O=S(=O)(c1cccc(C(F)(F)F)c1)N1CCC(c2cc(-c3cccc4ccccc34)n[nH]2)CC1 39.8 µM
COc1ccc(C(=O)Nc2nnc(C(F)(F)F)s2)cc1 56.2 µM
CCOC(=O)c1c(NC(=O)CSc2nnc(CNc3ccc(OC)cc3)n2C)sc(C)c1C 50.1 µM
CCCCn1c(-c2ccccc2)cnc1SCC(=O)NCCc1ccc(OC)c(OC)c1 56.2 µM
CCOC(=O)C1(CC)CC(CSc2nc3ccccc3[nH]2)OC1=O (stereo unspecified) 89.1 µM
Cc1ccc(N2CCN(c3ccc(C)cc3)C2c2ccccn2)cc1 25.1 µM
O=c1c2ccccc2sn1-c1ccc(Cl)c(S(=O)(=O)N2CCOCC2)c1 14.1 µM
Fc1ccc(-[n+]2nc(Nc3ccccc3)sc2-c2c3ccccc3cc3ccccc23)cc1 15.8 µM
CC(Cc1ccc(O)c(O)c1)C(C)Cc1ccc(O)c(O)c1 (stereo unspecified) 22.4 µM
